Experimental data as given in PubChem BioAssay AID686978 (National Center for Advancing Translational Sciences (NCATS), 2013).
Out of some 420,000 compounds screened, about 64,000 (15%) were called active. The shares of active, inactive and inconclusive entries below differ from those in the screen. The call rests on the fitted dose curve; in most records, active means well fitted inhibition curve with a large enough effect; inconclusive means small, poorly fitted or top-dose-only effect; inactive means flat fitted curve, though single readings scatter. Potencies of inconclusive entries are left out as doubtful fits.

Assay: qHTS for Inhibitors of human tyrosyl-DNA phosphodiesterase 1 (TDP1): qHTS in cells in absence of CPT; further: nearly all actives have a fitted effect of over 55% in size
Conditions: DT40 Tdp1-/- hTDP1 cells, no CPT, ATP luminescence, 48 h; activity change, negative = growth inhibition: at 46.2 µM (top of the series) unless noted
Outline: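 Chicken DT40 Tdp1-/- cells stably complemented with human TDP1 were seeded at 400 cells/well with DMSO in place of 20 nM camptothecin. After compound pinning, cells grew at least 48 hr at 37 °C; viability read by CellTiter-Glo luminescence.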
On the % scale 0 is the no-effect control and ±100 the full control effect; potency means the concentration at half of the fitted maximal effect; tags describe the fitted curve by direction and shape.

Which Potency does the source give for `O=C(N/N=C/c1cccs1)C(=O)Nc1cccc(Cl)c1` here?
The Potency was inconclusive [inhibitor, single point].

With `CCN(CC)c1nc(N2CCN(CCO)CC2)nc2ccccc12` as the molecule, how does the Potency read?
Its Potency is inconclusive [inhibitor, single point].

For `O=C(Oc1ccc(F)cc1)c1cccnc1`, which “activity change, negative = growth inhibition” value is on record?
The value was inactive: 3.16%.

Which Potency does the source give for `Cc1ccccc1NC(=S)N(Cc1ccco1)C(C)c1cccs1` (centres undefined) here?
The Potency was inconclusive [inhibitor, single point].

With `Cc1ccc(-c2cc(C(=O)NCCCN3CCOCC3)no2)cc1` as the molecule, how does the “activity change, negative = growth inhibition” value read?
Its value is inactive: -12.5%.

Which Potency does the source give for `CCn1cc(C(=O)OCC(=O)c2cc(C)n(-c3ccccc3F)c2C)c(=O)c2ccc(C)nc21` here?
Its Potency is inconclusive [inhibitor, single point].

For `CC(C)C(N)C(=O)NC(Cc1c[nH]c2ccccc12)C(=O)O` (centres undefined), which “activity change, negative = growth inhibition” value is on record?
The value was inactive: -9.11%.

Which Potency does the source give for `Cc1nccn1CC(O)Cn1c2ccccc2c2ccccc21` (centres undefined) here?
The Potency was inconclusive [inhibitor, single point].

Which Potency does the source give for `CC(C)C(=O)Nc1ccccc1C(=O)OCc1cc(=O)n2nc(C3CC3)sc2n1` here?
The Potency was inconclusive [inhibitor, single point].

For `CC(=Nc1ccccc1)C1=C(O)C(Cc2ccccc2)NC1=O` (centres undefined), which Potency is on record?
Its Potency is active: 0.0058 µM.

Which Potency does the source give for `CCOC(=O)c1cc2c(nc1C)-c1cc(Cl)cc(Cl)c1OC2O` (centres undefined) here?
Its Potency is inconclusive [inhibitor, partial curve, poor fit].

Which Potency does the source give for `CC(=O)Nc1ccc(S(=O)(=O)NCC(=O)OCC(=O)Nc2sccc2C(N)=O)cc1` here?
The Potency was inconclusive [inhibitor, partial curve, poor fit].

With `O=S(=O)(Cc1nnnn1-c1ccc(Br)cc1)c1ccccc1` as the molecule, how does the “activity change, negative = growth inhibition” value read?
Its value is inactive: -8.86%.

With `O=C(CC1(O)C(=O)N(CCc2ccccc2)c2ccccc21)c1ccco1` (centres undefined) as the molecule, how does the Potency read?
The Potency was active: 2.91 µM.

Which Potency does the source give for `CCOC(=O)c1sc(NC(=O)CSc2nnc(Cc3ccccc3)o2)c(C(=O)OCC)c1C` here?
Its Potency is inconclusive [inhibitor, partial curve].

For `COc1ccccc1-n1cnnc1SCC(=O)Nc1ncc(Cl)cc1Cl`, which Potency is on record?
Its Potency is inconclusive [inhibitor, single point].

Which Potency does the source give for `Cc1ccc(NC(=O)c2ccc(S(=O)(=O)N3CCC(C)CC3)cc2)nc1` here?
Its Potency is inconclusive [inhibitor, single point].

For `Cc1ccc(C(=O)COc2ccccc2C(=O)Nc2ccccc2)cc1`, which Potency is on record?
Its Potency is inconclusive [inhibitor, single point].

For `O=C1CN(C(=O)CN2C(=O)NC(c3ccccc3)(c3ccccc3)C2=O)c2ccccc2N1`, which “activity change, negative = growth inhibition” value is on record?
The value was inactive: -16.5%.

Which Potency does the source give for `Cc1cc(C(=O)NCc2nnc3n2CCN(Cc2ccc4c(c2)Cc2ccccc2-4)CC3)c(C)o1` here?
Its Potency is active: 16.4 µM.

With `COc1ccc(NC(=O)c2cnc(N3CCOCC3)c3ccccc23)cc1OC` as the molecule, how does the Potency read?
The Potency was inconclusive [inhibitor, single point].

Which Potency does the source give for `Cc1cccn2c(=O)c3cc(C(=O)NCC4CCCO4)c(=N)n(Cc4ccc(F)cc4)c3nc12` (centres undefined) here?
The Potency was inconclusive [inhibitor, single point].

With `Cc1ccc(C(=O)N/C(=C/c2ccccc2F)C(=O)NCCCn2ccnc2)cc1` as the molecule, how does the “activity change, negative = growth inhibition” value read?
Its value is inactive: 17.2%.

For `Cc1csc(=O)n1CC(=O)OCC(=O)Nc1cc(S(=O)(=O)N2CCOCC2)ccc1Cl`, which “activity change, negative = growth inhibition” value is on record?
The value was inactive: -17.1%.

For `CCOC(=O)N1CCC(NC(=O)c2cnn(-c3ccc(C)cc3)c2-n2cccc2)CC1`, which Potency is on record?
The Potency was active: 25.9 µM.

Which Potency does the source give for `CCC(NC(=O)c1cc(COc2ccc(F)c(F)c2)on1)c1ccncc1` (centres undefined) here?
The Potency was inconclusive [inhibitor, partial curve, poor fit].

Which Potency does the source give for `Cc1cccc(-c2nc3cc(NC(=O)c4ccc(OCC(C)C)cc4)ccc3o2)c1` here?
The Potency was inconclusive [inhibitor, partial curve].

Which “activity change, negative = growth inhibition” value does the source give for `Cc1ccc(C(C)C)c(OCC(=O)N/N=C2\CC(=O)CC(C)(C)C2)c1` here?
Its value is inactive: -25.9%.

Which “activity change, negative = growth inhibition” value does the source give for `CCN1C(=O)C(CC(=O)Nc2ccccc2)S/C1=N\c1ccccn1` (centres undefined) here?
The value was inactive: 5.66%.

For `O=C(c1cc(COc2cccc(C(F)(F)F)c2)on1)N1C[C@@H]2CCC[C@H]1C2`, which Potency is on record?
Its Potency is inconclusive [inhibitor, single point].

With `Cc1ccsc1C(=O)N(c1nc2ccccc2s1)c1c(C)cccc1C` as the molecule, how does the Potency read?
Its Potency is active: 23.1 µM.

Which “activity change, negative = growth inhibition” value does the source give for `O=C(CSc1ccccn1)N1CCNC1=O` here?
The value was inactive: 3.61%.

Which Potency does the source give for `O=C(Nc1ccc2nc(SCCOc3ccccc3)sc2c1)c1ccco1` here?
Its Potency is active: 23.1 µM.

Which Potency does the source give for `O=C(Nc1ccc(S(=O)(=O)N2CCCC2)cc1)c1ccc2c(=O)n3c(nc2c1)CCCCC3` here?
The Potency was active: 16.4 µM.

With `CCOc1ccc(NC(=O)NC(C)c2c(-n3cccc3)sc3c2CCN(CC)C3)cc1` (centres undefined) as the molecule, how does the Potency read?
Its Potency is active: 18.4 µM.

Which “activity change, negative = growth inhibition” value does the source give for `COc1cc(/C=C2\C(=O)N(c3ccc(NC(C)=O)cc3)N=C2c2ccccc2)ccc1O` here?
Its value is inactive: 7.03%.

With `CCOc1ccc2nc3c(cc2c1)CN(CCOC)C(=NCCOC)S3` as the molecule, how does the Potency read?
Its Potency is inconclusive [inhibitor, single point].

With `CCN(C(=O)COC(=O)/C=C/c1ccc(S(=O)(=O)N2CCc3ccccc32)cc1)C1CCS(=O)(=O)C1` (centres undefined) as the molecule, how does the Potency read?
Its Potency is inconclusive [inhibitor, single point].

With `COc1cc(C2C3=C(COC3=O)Oc3cc4c(cc32)OCO4)cc(OC)c1O` (centres undefined) as the molecule, how does the Potency read?
Its Potency is active: 0.651 µM.

With `Cc1cc(Cl)c(Cl)cc1S(=O)(=O)NCCCn1ccnc1` as the molecule, how does the Potency read?
Its Potency is inconclusive [inhibitor, single point].

Which Potency does the source give for `CN(C)S(=O)(=O)c1cccc(COC(=O)c2ccc(Cl)cc2O)c1` here?
Its Potency is inconclusive [inhibitor, single point].

Which Potency does the source give for `CCOc1ccc(N(CC(=O)NCCSCc2ccccc2Cl)S(C)(=O)=O)cc1` here?
The Potency was inconclusive [inhibitor, single point].

For `Cn1nnnc1SCC(=O)Nc1cc(S(=O)(=O)N2CCCCC2)ccc1Cl`, which Potency is on record?
Its Potency is active: 23.1 µM.

Which “activity change, negative = growth inhibition” value does the source give for `COc1ccc(C(=O)Nn2c(SCC(=O)NCc3ccco3)nc3ccccc3c2=O)cc1` here?
Its value is inactive: -28.4%.

For `CCOC(=O)NC1(NCc2ccccc2)Oc2ccccc2O1`, which Potency is on record?
The Potency was active: 20.6 µM.

For `COc1ccc(N(C)C(=O)C2CCCN2S(=O)(=O)c2cccc3nsnc23)c(OC)c1` (centres undefined), which “activity change, negative = growth inhibition” value is on record?
Its value is inactive: -17%.

For `CCOC1=CC2=C(C(=O)C(Cl)=CC2=O)[C@@H]2CN(S(=O)(=O)c3ccc(C)cc3)[C@@H](c3ccccc3)[C@H]12`, which Potency is on record?
Its Potency is active: 1.84 µM.

Which “activity change, negative = growth inhibition” value does the source give for `C/C(=N/NC(=O)c1cc2ccccc2cc1O)C1C(=O)c2ccccc2C1=O` here?
The value was inactive: -5.61%.

For `CCOC(CNC(=O)Cn1nc(C)c2ccccc21)OCC`, which “activity change, negative = growth inhibition” value is on record?
The value was inactive: -0.115%.

Which “activity change, negative = growth inhibition” value does the source give for `CCOc1ccc(NC(=O)Cn2cc(C(=O)c3ccc(F)cc3)c(=O)c3cc4c(cc32)OCO4)cc1` here?
The value was inactive: -26.9%.

Which “activity change, negative = growth inhibition” value does the source give for `COc1ccc(CNC(=O)COC(=O)CCCOc2ccc(Cl)cc2Cl)cc1` here?
Its value is inactive: -22.9%.

With `COC(=O)C1(C(=O)OC)C[C@H](/C=C/c2ccccc2)N(Cc2ccccc2OC)[C@@H]1c1cccc(Br)c1` as the molecule, how does the Potency read?
Its Potency is inconclusive [inhibitor, single point].

Which “activity change, negative = growth inhibition” value does the source give for `O=C(NCCOc1ccc(F)cc1)C1CCC(=O)N(CCc2ccccn2)C1` (centres undefined) here?
Its value is inactive: -3.28%.

For `COc1cc2c(cc1OC)CN(c1ccc(C(F)(F)F)cn1)CC2`, which Potency is on record?
Its Potency is active: 16.4 µM.

Which “activity change, negative = growth inhibition” value does the source give for `CCc1nnc(NC(=O)c2ccc(S(=O)(=O)N(CCOC)CCOC)cc2)o1` here?
Its value is inactive: 2.44%.

Which Potency does the source give for `COc1ccc(-c2oc3ccc(-c4ccc(OC)nc4)cc3c2C#CC2(O)CCCCC2)cc1` here?
The Potency was inconclusive [inhibitor, partial curve, poor fit].

For `CCn1c(SCC(=O)Nc2nncs2)nnc1C(C)NC(=O)c1ccccc1Br` (centres undefined), which “activity change, negative = growth inhibition” value is on record?
The value was inactive: -21.5%.

For `Cc1ccccc1OCCC(=O)Nc1cc(S(=O)(=O)N2CCCCC2)ccc1N1CCN(C)CC1`, which Potency is on record?
The Potency was inconclusive [inhibitor, single point].

With `O=C(Nc1ccccc1C(=O)Nc1ccc(Br)cn1)c1ccccc1Cl` as the molecule, how does the Potency read?
Its Potency is inconclusive [inhibitor, single point].

Which “activity change, negative = growth inhibition” value does the source give for `COc1ccc(CCNC(=O)Cn2c(=O)c3sccc3n(CC(=O)Nc3cccc(C(F)(F)F)c3)c2=O)cc1OC` here?
The value was inactive: -7.28%.

With `Cn1cccc1CC(=O)NNC(=O)Nc1ccc(F)cc1` as the molecule, how does the “activity change, negative = growth inhibition” value read?
The value was inactive: 1.36%.

Which Potency does the source give for `CCN(CC)c1c(C)nc2ccc(C(=O)NCc3ccc4c(c3)OCO4)cn12` here?
Its Potency is inconclusive [inhibitor, single point].

For `O=c1c(O)c(-c2ccc(O)cc2)oc2ccc(O)cc12`, which Potency is on record?
The Potency was active: 13.3 µM.

For `Cc1ccc2[nH]c(=O)c(CN(CCO)Cc3nnnn3CCc3ccccc3)cc2c1`, which “activity change, negative = growth inhibition” value is on record?
The value was inactive: -25%.

Which Potency does the source give for `CCCCOCCCNC(=O)C[C@@H]1C[C@@]2(C(=O)OCC)CCC=C2N(Cc2cccc3ccccc23)C1=O` here?
The Potency was active: 18.4 µM.

For `Nc1nc(-c2ccc(Br)cc2)cs1`, which “activity change, negative = growth inhibition” value is on record?
The value was inactive: -13.1%.

With `Cc1cc(NC(=O)CSCC(=O)Nc2cc(C(F)(F)F)ccc2N2CCOCC2)no1` as the molecule, how does the “activity change, negative = growth inhibition” value read?
The value was inactive: 3.51%.

For `CC(=O)c1cccc(NC(=O)COc2ccc3oc(=O)cc(C)c3c2)c1`, which Potency is on record?
Its Potency is inconclusive [inhibitor, single point].

Which activity change, negative = growth inhibition does the source give for `CCCC(CCC)c1nc2ccncc2[nH]1` here?
Its activity change, negative = growth inhibition is inconclusive: -34.7% [inhibitor].

With `C=C(C)COc1ccc(-c2n[nH]c(C)c2-c2ccccc2OC)c(O)c1` as the molecule, how does the Potency read?
The Potency was inconclusive [inhibitor, single point].

With `O=C(CNC(=O)c1cccnc1)N/N=C/c1cccnc1` as the molecule, how does the “activity change, negative = growth inhibition” value read?
Its value is inactive: -3.41%.

For `Cc1c(Br)cccc1NC(=O)c1sccc1-n1cccc1`, which Potency is on record?
Its Potency is inconclusive [inhibitor, partial curve, poor fit].

For `Cc1cccc(N2CCN(c3ncnc4onc(C)c34)CC2)c1C`, which Potency is on record?
Its Potency is inconclusive [inhibitor, full curve, poor fit].

For `C[C@@H]1CN([C@@H](C)CO)C(=O)c2cccc(NC(=O)C3CCCCC3)c2O[C@@H]1CN(C)Cc1ccc(Cl)c(Cl)c1`, which Potency is on record?
The Potency was active: 20.6 µM.
